Drawing on the supplement of paper PMC4967469, this text covers AUC and IC50 for 19 cell lines.

Common to all, as to experiment: Viability of human cancer cell lines after 72 h of drug (GDSC screen)
Compound in assay [1]: O=C(NC1CCNCC1)c1n[nH]cc1NC(=O)c1c(Cl)cccc1Cl [AT-7519]
The conditions noted are these: top dose 10.24 µM; top dose inferred. On the procedure:
(§1)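 Human cancer cell lines in 384-well plates, medium with 10% serum, drug for 72 h over a 256-fold dose range (nine 2-fold or five 4-fold steps up to the top dose). Adherent lines were fixed and stained with the nucleic acid dye Syto60, suspension lines read with resazurin; signal relative to control wells, capped at 0 and 100%. One two-parameter sigmoid per drug and line, fitted in a mixed model over all curves with the slope shared within a line.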

Compound in assay [2]: COc1cc(N2CCN(C)CC2)ccc1Nc1nc(N)c(C(=O)c2c(Cl)cccc2Cl)s1 [XMD14-99]
The conditions noted are these: top dose 10.24 µM; top dose inferred. On the procedure:
as §1

Compound in assay [3]: Cc1cc([N+](=O)[O-])ccc1NS(=O)(=O)c1cc(Cl)ccc1Cl [FH535]
The following applies: top dose 32 µM; top dose inferred. Here is the method:
as §1

pIC50: −log10 of the molar value. A lower IC50 marks a more sensitive line; fits outside the tested doses are given as limits. AUC is the area under the same curve over the 256-fold range up to the top dose, as a fraction; the more sensitive the line, the further below 1. A top dose marked as inferred comes from the curve model; the source does not state it. Bounds are passed on as bounds.

One may read the pIC50 as −log10 of the IC50, conventionally taken in molar units. Regarding GAMG (glioma, adherent), the AUC was 0.606 in assay [1], 0.984 in assay [2] and 0.661 in assay [3]. Besides, the pIC50 in assay [1] was 5.90; in assay [2], below 4.99; in assay [3] it was 5.24.

In the case of Hs939-T (melanoma, adherent), the figures for the AUC in assay [1], in assay [2] and in assay [3] were 0.966, 0.986 and 0.506, respectively. Besides, the pIC50 in assay [1] was below 4.99; in assay [2] it was below 4.99; in assay [3], 5.68.

For SW756 (cervix, adherent), the AUC in assay [1] stood at 0.984; in assay [2] it was 0.983; in assay [3], 0.585. Moreover, the results for the pIC50 in assay [1], in assay [2] and in assay [3] were below 4.99, below 4.99 and 5.45, respectively.

For SW780 (bladder, adherent), the AUC stood at 0.948 in assay [1], 0.986 in assay [2] and 0.635 in assay [3]. Besides, the pIC50 in assay [1] was below 4.99; in assay [2], below 4.99; in assay [3] it was 5.31.

“NCI-H1693 (lung adenocarcinoma, adherent)”: the AUC stood at 0.933 in assay [1], 0.969 in assay [2] and 0.869 in assay [3]. For the same cell line, the results for the pIC50 in assay [1], in assay [2] and in assay [3] were below 4.99, below 4.99 and below 4.49, respectively.

As to H2803 (mesothelioma, adherent), the AUC came to 0.969 in assay [1], 0.965 in assay [2] and 0.766 in assay [3]. Also, the negative logarithm of the IC50 (pIC50) in assay [1] was below 4.99; in assay [2], below 4.99; in assay [3] it was 4.86.

Take MKN28 (stomach, adherent): the AUC in assay [1] amounted to 0.849; in assay [2] it was 0.984; in assay [3], 0.597. Besides, the pIC50 in assay [1] is 5.10; in assay [2], below 4.99; in assay [3], 5.43.

As to BFTC-909 (kidney, adherent), the values for the AUC in assay [1], in assay [2] and in assay [3] were 0.982, 0.985 and 0.54, respectively. The results for the pIC50 in assay [1], in assay [2] and in assay [3] were below 4.99, below 4.99 and 5.59, respectively.

As to PCI-4B (head and neck, adherent), the results for the AUC in assay [1], in assay [2] and in assay [3] were 0.433, 0.984 and 0.663, respectively. Also, the pIC50 in assay [1] is 6.37; in assay [2] it was below 4.99; in assay [3], 5.26.

On to OVKATE (ovary, adherent), for which the results for the AUC in assay [1], in assay [2] and in assay [3] were 0.791, 0.967 and 0.917, respectively. Moreover, the negative-log IC50 (pIC50) in assay [1] was 5.06; in assay [2] it was below 4.99; in assay [3], below 4.49.

For AU565 (breast, adherent), the AUC in assay [1] is 0.543; in assay [2] it was 0.983; in assay [3], 0.411. The figures for the pIC50 in assay [1], in assay [2] and in assay [3] were 6.07, below 4.99 and 5.95, respectively.

“NCI-H3122 (lung adenocarcinoma, adherent)”: the results for the AUC in assay [1], in assay [2] and in assay [3] were 0.46, 0.905 and 0.658, respectively. For the same cell line, the figures for the pIC50 in assay [1], in assay [2] and in assay [3] were 6.31, below 4.99 and 5.25, respectively.

Consider “NCI-H2347 (lung adenocarcinoma, adherent)”, for which the AUC in assay [1] was 0.717; in assay [2] it was 0.978; in assay [3], 0.669. Also, the negative-log IC50 (pIC50) is 5.51 in assay [1], below 4.99 in assay [2] and 5.18 in assay [3].

With UM-UC-3 (bladder, adherent), the AUC in assay [1] was determined as 0.864; in assay [2], 0.976; in assay [3], 0.472. Besides, the pIC50 was 5.10 in assay [1], below 4.99 in assay [2] and 5.77 in assay [3].

PC-14 (lung adenocarcinoma, adherent): the AUC in assay [1] turned out to be 0.451; in assay [2] it was 0.959; in assay [3] it was 0.824. For the same cell line, the pIC50 in assay [1] was 6.32; in assay [2] it was below 4.99; in assay [3] it was 4.79.

Turning to BPH-1 (prostate, adherent), the figures for the AUC in assay [1], in assay [2] and in assay [3] were 0.257, 0.936 and 0.792, respectively. Moreover, the pIC50 was 6.92 in assay [1], below 4.99 in assay [2] and 4.79 in assay [3].

As for DU-145 (prostate, adherent), the AUC in assay [1] was determined as 0.958; in assay [2] it was 0.985; in assay [3], 0.619. The negative-log IC50 (pIC50) in assay [1] was below 4.99; in assay [2] it was below 4.99; in assay [3], 5.35.

“NCI-H2170 (lung squamous cell carcinoma, adherent)”: the AUC was found to be 0.892 in assay [1], 0.982 in assay [2] and 0.386 in assay [3]. Besides, the pIC50 is below 4.99 in assay [1], below 4.99 in assay [2] and 6.02 in assay [3].

HCC1395 (breast, adherent): the figures for the AUC in assay [1], in assay [2] and in assay [3] were 0.922, 0.983 and 0.318, respectively. Also, the pIC50 in assay [1] was below 4.99; in assay [2], below 4.99; in assay [3], 6.26.
